# Assay results published in paper PMC3846882.
# Sequences of proteins named here, by UniProt entry; tags and fusion partners are left off.
# UniProt Q15046: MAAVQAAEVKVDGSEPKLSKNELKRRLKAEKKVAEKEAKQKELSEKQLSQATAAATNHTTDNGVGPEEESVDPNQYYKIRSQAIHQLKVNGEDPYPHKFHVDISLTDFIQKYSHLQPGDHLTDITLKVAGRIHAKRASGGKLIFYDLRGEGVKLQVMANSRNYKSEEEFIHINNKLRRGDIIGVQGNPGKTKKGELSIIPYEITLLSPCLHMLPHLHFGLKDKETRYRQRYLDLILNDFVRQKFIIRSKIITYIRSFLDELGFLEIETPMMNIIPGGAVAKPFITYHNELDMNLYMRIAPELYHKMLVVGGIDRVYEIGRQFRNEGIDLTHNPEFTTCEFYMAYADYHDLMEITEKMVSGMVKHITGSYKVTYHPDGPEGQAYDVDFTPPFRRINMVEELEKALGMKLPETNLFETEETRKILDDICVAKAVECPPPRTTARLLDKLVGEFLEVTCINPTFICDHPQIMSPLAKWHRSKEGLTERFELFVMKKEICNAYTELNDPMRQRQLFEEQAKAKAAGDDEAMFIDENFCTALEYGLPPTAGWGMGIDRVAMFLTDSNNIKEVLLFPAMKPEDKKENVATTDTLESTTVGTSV
# UniProt P07814: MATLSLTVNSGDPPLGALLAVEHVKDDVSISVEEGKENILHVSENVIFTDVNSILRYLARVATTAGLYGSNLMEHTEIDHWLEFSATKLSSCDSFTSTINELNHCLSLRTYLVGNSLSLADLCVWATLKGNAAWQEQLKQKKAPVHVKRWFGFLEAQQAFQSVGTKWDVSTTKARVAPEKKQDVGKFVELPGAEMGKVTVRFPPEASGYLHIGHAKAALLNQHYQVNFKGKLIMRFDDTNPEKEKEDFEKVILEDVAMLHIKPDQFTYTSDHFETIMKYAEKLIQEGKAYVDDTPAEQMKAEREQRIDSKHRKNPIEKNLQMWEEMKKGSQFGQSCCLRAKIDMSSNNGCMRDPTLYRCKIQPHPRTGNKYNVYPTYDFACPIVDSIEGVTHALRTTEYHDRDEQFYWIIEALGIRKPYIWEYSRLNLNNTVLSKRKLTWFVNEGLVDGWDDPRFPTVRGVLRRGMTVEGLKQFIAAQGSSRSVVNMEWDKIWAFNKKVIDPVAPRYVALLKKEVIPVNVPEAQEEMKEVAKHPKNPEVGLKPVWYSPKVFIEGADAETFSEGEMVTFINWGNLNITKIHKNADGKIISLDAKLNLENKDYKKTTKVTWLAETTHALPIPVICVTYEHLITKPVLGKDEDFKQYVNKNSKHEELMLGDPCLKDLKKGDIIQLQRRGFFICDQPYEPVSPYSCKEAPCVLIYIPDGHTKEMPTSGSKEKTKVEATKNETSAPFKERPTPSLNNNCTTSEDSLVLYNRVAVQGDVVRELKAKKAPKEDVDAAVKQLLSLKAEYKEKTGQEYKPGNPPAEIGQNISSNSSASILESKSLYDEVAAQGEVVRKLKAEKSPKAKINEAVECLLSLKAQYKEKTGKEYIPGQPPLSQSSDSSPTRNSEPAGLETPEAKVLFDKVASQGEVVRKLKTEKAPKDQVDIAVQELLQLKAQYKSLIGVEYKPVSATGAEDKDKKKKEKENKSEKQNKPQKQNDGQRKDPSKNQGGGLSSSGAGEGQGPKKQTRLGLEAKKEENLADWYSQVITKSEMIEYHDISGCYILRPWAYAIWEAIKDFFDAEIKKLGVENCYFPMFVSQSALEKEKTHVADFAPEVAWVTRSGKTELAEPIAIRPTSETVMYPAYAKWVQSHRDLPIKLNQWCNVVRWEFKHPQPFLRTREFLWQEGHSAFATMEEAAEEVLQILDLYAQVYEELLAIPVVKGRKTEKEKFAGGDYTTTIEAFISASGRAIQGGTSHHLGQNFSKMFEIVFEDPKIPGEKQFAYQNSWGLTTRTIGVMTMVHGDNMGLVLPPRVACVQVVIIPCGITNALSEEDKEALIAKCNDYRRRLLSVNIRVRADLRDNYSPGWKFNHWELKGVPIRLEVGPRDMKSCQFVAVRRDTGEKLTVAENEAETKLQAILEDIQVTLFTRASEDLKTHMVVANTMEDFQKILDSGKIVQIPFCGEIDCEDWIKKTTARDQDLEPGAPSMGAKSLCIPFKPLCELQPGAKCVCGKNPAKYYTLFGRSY
# No constants are given. Whether binding was seen depends on the method and setting. Binding seen in cells or lysates may run through a third protein. Some binding calls cover weakened binding; strength is not graded here. For part of these data: Tags and fused reporters may be left off the sequences shown.
# T1: S/FLAG/SBP tagged AIMP1 (UniProt Q12904)
# T1 sequence: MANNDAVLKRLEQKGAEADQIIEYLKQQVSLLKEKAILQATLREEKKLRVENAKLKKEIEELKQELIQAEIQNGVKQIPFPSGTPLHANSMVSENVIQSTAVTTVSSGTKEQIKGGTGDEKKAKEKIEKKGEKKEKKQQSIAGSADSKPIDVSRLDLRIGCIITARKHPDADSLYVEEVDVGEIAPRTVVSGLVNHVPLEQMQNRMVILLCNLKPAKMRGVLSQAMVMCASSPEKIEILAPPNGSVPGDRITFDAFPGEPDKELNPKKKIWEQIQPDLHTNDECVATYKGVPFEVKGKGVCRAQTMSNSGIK
# T2: S/FLAG/SBP tagged AIMP2 (UniProt Q13155)
# T2 sequence: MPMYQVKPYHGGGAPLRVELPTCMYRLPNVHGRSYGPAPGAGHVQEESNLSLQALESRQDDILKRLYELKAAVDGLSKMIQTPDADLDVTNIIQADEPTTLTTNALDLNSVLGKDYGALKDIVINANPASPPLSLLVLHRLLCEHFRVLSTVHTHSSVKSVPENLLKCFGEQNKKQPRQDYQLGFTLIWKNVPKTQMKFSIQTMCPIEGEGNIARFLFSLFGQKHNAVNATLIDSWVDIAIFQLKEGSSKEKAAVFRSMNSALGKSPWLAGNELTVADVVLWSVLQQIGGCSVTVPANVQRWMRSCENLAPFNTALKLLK
# T3: Aminoacyl tRNA synthase complex-interacting multifunctional protein 1 (endogenous, canonical) (human (endogenous in HEK 293T and HCT-8)) (UniProt Q12904)
# T3 sequence: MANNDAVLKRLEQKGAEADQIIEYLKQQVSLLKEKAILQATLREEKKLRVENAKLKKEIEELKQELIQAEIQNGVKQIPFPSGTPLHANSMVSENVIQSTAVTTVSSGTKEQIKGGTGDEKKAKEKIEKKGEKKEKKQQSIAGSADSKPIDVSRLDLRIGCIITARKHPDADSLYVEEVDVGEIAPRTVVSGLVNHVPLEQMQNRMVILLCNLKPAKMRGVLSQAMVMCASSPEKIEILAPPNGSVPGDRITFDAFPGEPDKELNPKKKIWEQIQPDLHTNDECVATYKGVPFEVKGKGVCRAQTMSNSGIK
# Key:
# S/FLAG/SBP tagged AIMP1 = target: T1, S/FLAG/SBP tagged AIMP1; experiment: pull-down; streptavidin pull down (SA pull down) of S/FLAG/SBP-tagged bait from lysates of transfected HEK 293T and HCT-8 cells in NETN buffer, eluate immunoblotted for endogenous proteins; mock vector as control
# S/FLAG/SBP tagged AIMP2 = target: T2, S/FLAG/SBP tagged AIMP2; experiment: as above
# S/FLAG/SBP tagged KARS = S/FLAG/SBP tagged KARS (UniProt Q15046); experiment: as above
# [1] = target: T3, Aminoacyl tRNA synthase complex-interacting multifunctional protein 1 (endogenous, canonical) (human (endogenous in HEK 293T and HCT-8)); experiment: co-IP; endogenous proteins; 500 μg lysate of HEK 293T and HCT-8 cells in NETN buffer, primary antibody 2 h at 4 °C, protein A/G PLUS-Agarose 12 h, immunoblot; IgG as control
# [2] = target: Bifunctional aminoacyl-tRNA synthetase (glutamyl-prolyl-tRNA synthetase) (human (endogenous in HEK 293T and HCT-8)) (UniProt P07814); experiment: as above
# [3] = target: Lysyl-tRNA synthetase (endogenous) (human (endogenous in HEK 293T and HCT-8)), Q15046; experiment: as above; conditions: remark: other sources report otherwise
# [4] = target: S/FLAG/SBP tagged KARS, Q15046; experiment: pull-down; streptavidin pull down (SA pull down) of S/FLAG/SBP-tagged bait from lysates of transfected HEK 293T and HCT-8 cells in NETN buffer, eluate immunoblotted for endogenous proteins; mock vector as control; conditions: remark: other sources report otherwise
binding (S/FLAG/SBP tagged AIMP1),binding (S/FLAG/SBP tagged AIMP2),binding (S/FLAG/SBP tagged KARS),binding [1],binding [2],binding [3],binding [4],Binder
binds weakly,binds weakly,binds weakly,,,,,"threonyl-tRNA synthetase (enzyme, UniProt P26639 1-723) MFEEKASSPSGKMGGEEKPIGAGEEKQKEGGKKKNKEGSGDGGRAELNPWPEYIYTRLEMYNILKAEHDSILAEKAEKDSKPIKVTLPDGKQVDAESWKTTPYQIACGISQGLADNTVIAKVNNVVWDLDRPLEEDCTLELLKFEDEEAQAVYWHSSAHIMGEAMERVYGGCLCYGPPIENGFYYDMYLEEGGVSSNDFSSLEALCKKIIKEKQAFERLEVKKETLLAMFKYNKFKCRILNEKVNTPTTTVYRCGPLIDLCRGPHVRHTGKIKALKIHKNSSTYWEGKADMETLQRIYGISFPDPKMLKEWEKFQEEAKNRDHRKIGRDQELYFFHELSPGSCFFLPKGAYIYNALIEFIRSEYRKRGFQEVVTPNIFNSRLWMTSGHWQHYSENMFSFEVEKELFALKPMNCPGHCLMFDHRPRSWRELPLRLADFGVLHRNELSGALTGLTRVRRFQQDDAHIFCAMEQIEDEIKGCLDFLRTVYSVFGFSFKLNLSTRPEKFLGDIEVWDQAEKQLENSLNEFGEKWELNSGDGAFYGPKIDIQIKDAIGRYHQCATIQLDFQLPIRFNLTYVSHDGDDKKRPVIVHRAILGSVERMIAILTENYGGKWPFWLSPRQVMVVPVGPTCDEYAQKVRQQFHDAKFMADIDLDPGCTLNKKIRNAQLAQYNFILVVGEKEKISGTVNIRTRDNKVHGERTISETIERLQQLKEFRSKQAEEEF"
binds,binds,,binds,binds,,,"Isoform 1 of Probable threonyl-tRNA synthetase 2 (enzyme, UniProt A2RTX5 1-802) MAAEALAAEAVASRLERQEEDIRWLWSEVERLRDEQLNAPYSCQAEGPCLTREVAQLRAENCDLRHRLCSLRLCLAEERSRQATLESAELEAAQEAGAQPPPSQSQDKDMKKKKMKESEADSEVKHQPIFIKERLKLFEILKKDHQLLLAIYGKKGDTSNIITVRVADGQTVQGEVWKTTPYQVAAEISQELAESTVIAKVNGELWDLDRPLEGDSSLELLTFDNEEAQAVYWHSSAHILGEAMELYYGGHLCYGPPIENGFYYDMFIEDRAVSSTELSALENICKAIIKEKQPFERLEVSKEILLEMFKYNKFKCRILNEKVNTATTTVYRCGPLIDLCKGPHVRHTGKIKTIKIFKNSSTYWEGNPEMETLQRIYGISFPDNKMMRDWEKFQEEAKNRDHRKIGKEQELFFFHDLSPGSCFFLPRGAFIYNTLTDFIREEYHKRDFTEVLSPNMYNSKLWEASGHWQHYSENMFTFEIEKDTFALKPMNCPGHCLMFAHRPRSWREMPIRFADFGVLHRNELSGTLSGLTRVRRFQQDDAHIFCTVEQIEEEIKGCLQFLQSVYSTFGFSFQLNLSTRPENFLGEIEMWNEAEKQLQNSLMDFGEPWKMNPGDGAFYGPKIDIKIKDAIGRYHQCATIQLDFQLPIRFNLTYVSKDGDDKKRPVIIHRAILGSVERMIAILSENYGGKWPFWLSPRQVMVIPVGPTCEKYALQVSSEFFEEGFMADVDLDHSCTLNKKIRNAQLAQYNFILVVGEKEKIDNAVNVRTRDNKIHGEILVTSAIDKLKNLRKTRTLNAEEAF"
,,,,,binds,binds,"Isoform 1 of Probable threonyl-tRNA synthetase 2, A2RTX5 1-802 (enzyme) MAAEALAAEAVASRLERQEEDIRWLWSEVERLRDEQLNAPYSCQAEGPCLTREVAQLRAENCDLRHRLCSLRLCLAEERSRQATLESAELEAAQEAGAQPPPSQSQDKDMKKKKMKESEADSEVKHQPIFIKERLKLFEILKKDHQLLLAIYGKKGDTSNIITVRVADGQTVQGEVWKTTPYQVAAEISQELAESTVIAKVNGELWDLDRPLEGDSSLELLTFDNEEAQAVYWHSSAHILGEAMELYYGGHLCYGPPIENGFYYDMFIEDRAVSSTELSALENICKAIIKEKQPFERLEVSKEILLEMFKYNKFKCRILNEKVNTATTTVYRCGPLIDLCKGPHVRHTGKIKTIKIFKNSSTYWEGNPEMETLQRIYGISFPDNKMMRDWEKFQEEAKNRDHRKIGKEQELFFFHDLSPGSCFFLPRGAFIYNTLTDFIREEYHKRDFTEVLSPNMYNSKLWEASGHWQHYSENMFTFEIEKDTFALKPMNCPGHCLMFAHRPRSWREMPIRFADFGVLHRNELSGTLSGLTRVRRFQQDDAHIFCTVEQIEEEIKGCLQFLQSVYSTFGFSFQLNLSTRPENFLGEIEMWNEAEKQLQNSLMDFGEPWKMNPGDGAFYGPKIDIKIKDAIGRYHQCATIQLDFQLPIRFNLTYVSKDGDDKKRPVIIHRAILGSVERMIAILSENYGGKWPFWLSPRQVMVIPVGPTCEKYALQVSSEFFEEGFMADVDLDHSCTLNKKIRNAQLAQYNFILVVGEKEKIDNAVNVRTRDNKIHGEILVTSAIDKLKNLRKTRTLNAEEAF"
